Source: article PMC6919601, “Identification of Plasmodium dipeptidyl aminopeptidase allosteric inhibitors by high throughput screening” (PLoS ONE, 2019)
About 230 (0.21%) of roughly 110,000 compounds showed an effect of 50% or more. This is one part of the list.

These compounds were tested against DPAP1 (Plasmodium falciparum, UniProt Q8IIJ9) (assay: primary screen, percent inhibition; read by cleavage of a fluorogenic dipeptide substrate; higher = more effect of the substance).
Parameters: species or system P. falciparum D10 trophozoite lysates; single well
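Note: 30 min substrate incubation versus DMSO and 10 µM JCP410 controls.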

DPAP1, sequence (Q8IIJ9 whole entry, looked up): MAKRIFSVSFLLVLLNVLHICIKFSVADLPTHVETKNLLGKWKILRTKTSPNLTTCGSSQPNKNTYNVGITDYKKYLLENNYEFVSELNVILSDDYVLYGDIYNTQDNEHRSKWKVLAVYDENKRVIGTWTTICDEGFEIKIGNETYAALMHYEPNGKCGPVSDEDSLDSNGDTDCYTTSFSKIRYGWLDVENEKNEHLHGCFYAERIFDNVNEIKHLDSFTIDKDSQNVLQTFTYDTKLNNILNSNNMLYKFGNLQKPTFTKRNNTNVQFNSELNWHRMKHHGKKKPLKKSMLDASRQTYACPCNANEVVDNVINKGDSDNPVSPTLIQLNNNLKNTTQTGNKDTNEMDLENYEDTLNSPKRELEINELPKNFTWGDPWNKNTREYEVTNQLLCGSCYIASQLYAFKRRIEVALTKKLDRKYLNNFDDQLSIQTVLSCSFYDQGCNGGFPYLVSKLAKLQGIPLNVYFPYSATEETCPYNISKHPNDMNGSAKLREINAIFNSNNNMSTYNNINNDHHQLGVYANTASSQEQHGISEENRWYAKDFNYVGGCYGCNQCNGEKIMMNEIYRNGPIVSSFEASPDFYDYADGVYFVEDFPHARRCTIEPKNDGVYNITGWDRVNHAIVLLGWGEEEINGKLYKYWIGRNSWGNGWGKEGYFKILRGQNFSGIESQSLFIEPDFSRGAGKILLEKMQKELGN

Compound | % Inhibition @ 10 uM
O=C1C(NS(=O)(=O)c2ccccc2)=C/C(=N\S(=O)(=O)c2ccc(Cl)cc2)c2ccccc21 | 3.15%
O=C(COc1ccc2ccccc2c1)Nc1c2c(nn1-c1ccc(Cl)cc1)CS(=O)(=O)C2 | -3.83%
CCCCNC(=O)C1CCN(C(=O)c2c(C)nn(-c3ccccc3)c2-n2cccc2)CC1 | 3.4%
CCN(CC)C(=O)Cn1cc(SCC(=O)NCc2ccc(F)cc2)c2ccccc21 | 3.25%
c1cc(-c2ncnn2-c2ccncc2)ccn1 | 1.57%
COC(=O)Nc1ccc2c(c1)N(C(=O)CCN1CCN3CCCC3C1)c1ccccc1CC2 (stereo not drawn) | 6.15%
CCOC(=O)N1CCN(S(=O)(=O)/C=C/c2ccccc2)CC1 | 21.7%
CC1(C)CC(=O)C2=C(C1)N(c1cccc(C(F)(F)F)c1)C(N)=C(C#N)C2c1ccsc1 (stereo not drawn) | -1.44%
Fc1ccc(CN2CCOCC2)cc1Br | -4.04%
Cc1cc(O)nc(NC(=O)Cc2ccccc2)n1 | 0.755%
COc1ccccc1Sc1ccccc1CN(C)C | -1.06%
CC(NC(=O)c1cccc(N)c1)c1ccccc1 (stereo not drawn) | 7.55%
c1cc(Nc2ncnc3sc4c(c23)CCC4)ccn1 | 2.62%
CCOc1ccc(N2CCc3c2nc2ccccc2c3/N=C2/CCCN2C)cc1 | 7.68%
CCOc1ccc(C2C(C(=O)c3ccc(F)cc3)=C(O)C(=O)N2Cc2cccnc2)cc1OC (stereo not drawn) | 3.8%
COc1ccc(Br)cc1CNC(=O)Cn1nc(C)n2c(cc3cc(C)ccc32)c1=O | 0.0198%
CCC(CC)C(=O)Nc1ccc(OC)cc1OC | 4.49%
COCCN1C(=O)C(CC(=O)Nc2ccc(F)cc2)S/C1=N\c1ccccc1 (stereo not drawn) | -5.1%
CCCCCC(=O)Nc1ncc2c(n1)CC(c1ccc(C(C)(C)C)cc1)CC2=O (stereo not drawn) | -6.78%
O=C(O)COc1ccc2c(=O)c(Oc3ccc(Cl)cc3)coc2c1 | -6.37%
CCOC(=O)c1c(N)n(CCCO)c2nc3ccccc3nc12 | -4.01%
O=C(CCN1CCCCC1)Nc1c2c(cc3c1CCC3)CCC2 | -6.68%
c1cc2c(cc1C1OCC3(CO1)COC(c1ccc4c(c1)OCO4)OC3)OCO2 (stereo not drawn) | -4.26%
CCOC(=O)c1sc2nc3c(c(-c4ccc(Cl)cc4)c2c1N)CCC3 | -0.458%
COc1ccc(C2CC3=NC(C)=C(C(=O)OC(C)C)C(c4cccnc4)C3=C(O)C2)cc1 (stereo not drawn) | -3.69%
c1coc(CNc2ccc3c(c2)OCO3)c1 | 1.83%

Compound | % Inhibition @ 10 uM
COc1cc2nc(SCc3ccc(C#N)cc3)n3nc(CCn4nc(C)cc4C)nc3c2cc1OC | -6.06%
CCc1nnc(NC(=O)c2ccc3c(c2)CC(c2ccccc2)OC3=O)s1 (stereo not drawn) | 0.558%
O=c1/c(=C/c2ccc(-c3ccc(Cl)cc3Cl)o2)sc2nc3ccccc3n12 | 1.88%
Cc1nnc(N2CCC(C(=O)N3CCC(C(N)=O)CC3)CC2)c2nn(-c3ccccc3)c(C)c12 | 2.92%
CC(C)COc1ccc2c(c1)c1c3n2CCNC3CCC1 (stereo not drawn) | -1.96%
Cc1sc2nc(N)c(C#N)c(-c3ccccc3)c2c1C | -4.72%
CCOc1ccc(Cc2onc3c2C(=O)CC(c2ccccc2)C3)cc1OCC (stereo not drawn) | 2.57%
CCCC1CCC(c2ccc(C(=O)N3CCOCC3)cc2)CC1 (stereo not drawn) | 7.56%
Cc1cc(OCC(=O)N2CCOCC2)cc(C)c1Cl | 3.66%
Cc1ccc(S(=O)(=O)n2nc(C#N)c(C#N)c2N)cc1 | 3.59%
CCC(=O)Nc1ccc(S(=O)(=O)N(C)Cc2ccccc2)cc1 | 2.79%
CCN(CC)CCN(C(=O)c1ccc(C(C)=O)cc1)c1nc2c(C)cccc2s1 | 0.968%
Cn1c(N2CCC(Cc3ccccc3)CC2)nc2c1c(=O)n(Cc1ccc(Cl)cc1)c(=O)n2C | 4.74%
CCCc1cc(O)nc(/N=C(\N)Nc2ccc3c(c2)OCCO3)n1 | -1.38%
Cc1ccc(NCN2C(=O)C3C4CCC(C4)C3C2=O)cc1Cl (stereo not drawn) | 0.536%
CCCN1CCN(CC2=C(C(=O)OCC)C(c3cccs3)NC(=O)N2)CC1 (stereo not drawn) | -4.63%
CC(C)c1ccc(/C=C/C(=O)NCc2ccccc2)cc1 | 5.29%
COc1cccc(-n2nnc(S(=O)(=O)c3ccc(Cl)cc3)c2C)c1 | -3.37%
CC1CC(C)CN(CCCNC(=O)c2cc3c(O)nc4ccccc4c3s2)C1 (stereo not drawn) | -2.29%
Cc1cc(C)n(S(=O)(=O)c2c(C)c(C)cc(C)c2C)n1 | -0.902%
CCOc1ccccc1C1CC(=O)NC(SCC(N)=O)=C1C#N (stereo not drawn) | -2.89%
Cn1c(O)c(/C=N/c2cccc(Cl)c2)c2ccccc21 | 0.472%
CCOC(=O)C1=C(c2ccccc2)NC(=O)NC1c1ccc(CC)cc1 (stereo not drawn) | 0.0538%
CCc1ccc(NC(=O)c2ccc(OC)cc2)cc1 | -5.32%
Nc1c(C(=O)Nc2ccc(Cl)c(C(=O)O)c2)sc2nc3c(cc12)CCCC3 | 6.37%
CC(c1ccccc1)N1C(=O)NC(=O)/C(=C/c2ccc(SC3CCCCC3)o2)C1=O (stereo not drawn) | 0.458%

Compound | % Inhibition @ 10 uM
C=CCO/C(O)=C1\C(C)=Nc2nnnn2C1c1ccc(Br)cc1 (stereo not drawn) | -5.19%
COc1cc(C(=O)O)ccc1OCCC(C)C | -3.01%
COc1ccc(S(=O)(=O)N(C)CC(=O)NCc2ccc(C)cc2)cc1 | -0.48%
Cn1ncc2c(NCCCc3ccccc3)ncnc21 | 3.83%
COc1cc(OC)c(OC)cc1CN1CCN(Cc2ccccc2Br)CC1 | -9.68%
CCC1CCCCN1CCCNC(=O)c1ccc(CS(=O)(=O)c2ccc(Br)cc2)o1 (stereo not drawn) | -1.28%
CC(C)(C#Cc1ccc(Br)cc1)OC(=O)Nc1ccccc1 | 11.7%
COc1cc(OC)cc(C2=N/C(=C\c3ccc(OC)c(OC)c3)C(=O)O2)c1 | -7.76%
CCOC(=O)N1CCN(CC(O)COc2ccc(Cl)c(C)c2)CC1 (stereo not drawn) | 0.291%
COC(=O)c1cc2c(s1)CN(Cc1ccc(Cl)cc1)C2 | -2.14%
CCN(CC)C(=O)C1CCCN(C2CCN(C)CC2)C1 (stereo not drawn) | -1.81%
O=C(Nc1ccc(Oc2ccc3ccccc3c2)cc1)c1ccco1 | 2.38%
c1ccc2c(c1)nc1n2C2(N3CCOCC3)CCCCC2C1N1CCOCC1 (stereo not drawn) | -2.82%
CCCCCc1ccc(-c2ccc(/C=C/C(=O)NC(C)c3ccccc3)cc2)nc1 (stereo not drawn) | 1.13%
CC(C)CCNc1nc2ccccc2n2nnnc12 | 2.76%
O=c1oc(-c2cccs2)nc2sc3c(c12)CCCC3 | -5.11%
CCN(CC)C(=O)CSc1nc2c(C)c(C)ccc2[nH]1 | 0.907%
COC(=O)C1=C(C)N(C)C(=O)/C1=C\c1ccccc1 | 3.43%
CN1CCN(Cc2nc3c(c(=O)n(C)c(=O)n3C)n2Cc2c(F)cccc2Cl)CC1 | -6.06%
Cc1cc(C)c(NC(=O)CN2CCN3CCCC3C2)c(C)c1 (stereo not drawn) | 2.38%
CC(Oc1ccc(F)cc1)C(=O)Nc1sc2c(c1C(N)=O)CCC2 (stereo not drawn) | 2.44%
Cn1c(C(=O)N2CCOCC2)cc2sccc21 | 0.291%
CCCS(=O)(=O)n1nc(-c2ccc(C)cc2)cc1N | -5.76%
O=C1CC(N2CCN(Cc3ccc4c(c3)OCO4)CC2)C(=O)N1c1ccc(Cl)c(Cl)c1 (stereo not drawn) | -2.6%
Cc1cc(C)c2c(n1)nn1c(C)c(CCC(=O)NCc3cccc(Cl)c3)c(C)nc21 | -8.02%
COC(=O)c1cc(S(=O)(=O)/C=C/c2ccccc2)c(Cl)cc1Cl | 0.275%

Compound | % Inhibition @ 10 uM
O=[N+]([O-])c1ccc(Sc2cccs2)c([N+](=O)[O-])c1 | 3.34%
CCOC(=O)c1cc(O)nc2ccccc12 | 3.04%
Cc1cc(Cl)ccc1OCC(=O)Nc1cccc(C#N)c1 | -7.25%
CC(C)N1CN(c2nc3ccccc3s2)CN(c2nc3ccccc3s2)C1 | -3.53%
O=C(/C=C/c1ccc2c(c1)OCO2)Nc1ccc(Cl)cc1 | -7.8%
COc1ccc(CNc2nc3c(C)cc(C)cc3s2)cc1 | 0.627%
O=C(NCc1ccc(Cl)cc1)c1ccc(CS(=O)(=O)c2cccc(C(F)(F)F)c2)o1 | -3.32%
O=C(c1cccs1)N1CCN(c2ccc(Cl)cc2)CC1 | -5.14%
CCN(CC)S(=O)(=O)c1cc(C(=O)Nc2ccc(C(=O)O)cc2)ccc1C | -7.32%
Cc1cccc(C)c1NC(=O)CCC(=O)O | -0.216%
N#Cc1c(-n2ncnc2-c2cccnc2)sc2c1CCCCC2 | 0.392%
O=C1NC(=O)C(=Cc2ccc3c(c2)OCO3)C(=O)N1 | -0.902%
c1ccc(C[n+]2cccc(-c3ccccc3)c2)cc1 | 6.27%
CC(=O)NC12CC3CC(C1)C(=O)C(C3)C2 | -2.78%
Cn1cccc1Cc1nnc(SCC(N)=O)n1-c1ccccc1 | 5.32%
CC(=O)Nc1ccc(NC(C)=O)c2ccccc12 | 3.53%
CN1CCCN(Cc2ccc([N+](=O)[O-])cc2)CC1 | -5.41%
Cc1ccc(C/N=C(\N)Nc2nc(C)cc(C)n2)cc1 | 1.37%
COc1cccc(-c2cc(C(F)(F)F)n3ncc(C(=O)NC4CCCC4)c3n2)c1 | 8.92%
COCCN1C2=C(C(=O)CC(C)(C)C2)C(c2ccc(OC)c(C(=O)O)c2)C2=C1CC(C)(C)CC2=O | -1.63%
Clc1ccc(OCCN2CCCCC2)c2ccccc12 | 1.57%
Cc1ccc2oc(-c3cccc(NC(=O)CC(C)C)c3)nc2c1 | 2.45%
Cc1ccc(-n2nc(C)c(/C=N/Cc3ccccc3)c2O)cc1C | 4.97%
COc1ccc(-c2cc(C)no2)cc1S(=O)(=O)Nc1ccc(C)cn1 | 4.36%
